Reference: PubChem BioAssay AID624296 (National Center for Advancing Translational Sciences (NCATS), 2012)
Out of some 350,000 compounds screened, about 9,900 (2.8%) were called active. The inconclusive results got no clear call from the source; some entries with a clear call stand among them for comparison. Calls follow the shape of the dose curve; as a rule, active = well fitted activation curve with a large enough effect; inconclusive = small, poorly fitted or top-dose-only effect; inactive = no such curve, though single readings can be large or run the other way. No potency is given beside an inconclusive call; the fits are too rough. More than one record can exist for a structure, and the calls need not agree.
Potency is read from the fitted curve at half-maximal effect; tags tell the direction and shape of the fitted curve.

Test: A quantitative high throughput screen for small molecules that induce DNA re-replication in MCF 10a normal breast cells. Also: nearly all actives have a fitted effect of over 50% in size. As to activity, positive = re-replication: % of control where 0% means no effect.
Conditions: MCF 10A DNA re-replication, Hoechst nuclear intensity, 48 h; activity, positive = re-replication: at 46.1 µM (top of the series)
With `CCOc1ccc2nc(NC(=O)C3CCN(c4cnccn4)CC3)sc2c1` the Potency was inconclusive [activator, single point].
For `O=C1CC(c2ccccc2)CC(O)=C1C=Nc1ccc(O)cc1` (stereo not drawn), the Potency was inconclusive [activator, single point].
For `CS(=O)(=O)N1CCC(C(=O)Nc2cccc(Br)c2)CC1`, the “activity, positive = re-replication” value was inactive: -4.33%.
In the case of `Cc1ccc2c(C)c(C(=O)NCc3ccc(S(N)(=O)=O)cc3)oc2c1`, the “activity, positive = re-replication” value is reported as inactive: 14.2%.
For `CC(C)CCN(C(=O)CNC(=O)c1cccs1)C(C(=O)NC1CCCC1)c1ccncc1` (stereo not drawn), the Potency was inconclusive [activator, partial curve, poor fit].
For `S=C(N/N=C/c1ccc(Cl)c(Cl)c1)Nc1ccccc1Cl`, the “activity, positive = re-replication” value was inactive: 12.2%.
In the case of `COc1ccc(C(=O)N/N=C/c2sc3ccccc3c2O)cc1`, the Potency is reported as inconclusive [activator, partial curve, poor fit].
For `N#CCC(=O)Nc1nc(-c2ccc3c(c2)OCCO3)cs1`, the Potency was active: 23.1 µM.
With `NC(=O)CC(NC(=O)Cc1cccc2ccccc12)c1ccc(NC2CCN(Cc3ccccc3)CC2)c([N+](=O)[O-])c1` (stereo not drawn) the Potency was inconclusive [activator, full curve, poor fit].
For `CCOC(=O)c1c(NC(=O)OC)sc(C(=O)N(C)C)c1C`, the Potency was inconclusive [activator, partial curve, poor fit].
In the case of `COc1ccc(C(=O)Oc2ccc[nH]c2=O)cc1`, the Potency is reported as inconclusive [activator, single point].
With `COc1ccccc1/C=C1\CCCC2=C1Nc1nnnn1C2c1ccccc1OC` (stereo not drawn) the Potency was inconclusive [activator, partial curve, poor fit].
With `O=C1c2ccccc2C(=O)c2c1cccc2N1CCOCC1` the “activity, positive = re-replication” value was inactive: 8.15%.
With `FC(F)(F)c1cccc(NC(=S)NCc2ccc(Cl)cc2)c1` the Potency was active: 18.4 µM.
With `O=C1N[C@H](Cc2ccccc2)COC(=O)[C@@H](Cc2ccc(F)cc2)CC/C=C/C[C@H]1CC(=O)N(CCO)Cc1ccccc1` the Potency was inconclusive [activator, single point].
In the case of `C[C@@H]1C[C@H]2[C@@H]3C[C@H](F)C4=CC(=O)C=C[C@]4(C)[C@@]3(F)[C@@H](O)C[C@]2(C)[C@@]1(O)C(=O)CO`, the Potency is reported as “inactive”.
In the case of `COc1ccc(NC(=O)C(=O)NCCC2=CCCCC2)c(OC)c1`, the Potency is reported as inconclusive [activator, partial curve, poor fit].
With `COc1cccc(NC(=O)CN(C)C(=O)c2cccc(NS(=O)(=O)c3ccc(Br)cc3)c2)c1` the Potency was inconclusive [activator, partial curve, poor fit].
With `COc1ccc(Cl)cc1NC(=O)COC(=O)CCNS(=O)(=O)c1cccs1` the “activity, positive = re-replication” value was inactive: -3.21%.
For `CCc1ccc(C2c3[nH]c4ccccc4c3CCN2C(=O)c2cc(C)nn2C)cc1` (stereo not drawn), the Potency was active: 23.1 µM.
For `Fc1cccc(-c2c(-c3ccccc3)ncc3cc(F)ccc23)c1`, the Potency was inconclusive [activator, single point].
For `Cc1csc(SC(C)C(=O)NCC2CCCO2)n1` (stereo not drawn), the “activity, positive = re-replication” value was inactive: -1.25%.
In the case of `O=C(O)c1cccc(Nc2nc3ccccc3nc2NS(=O)(=O)c2cccs2)c1`, the Potency is reported as inconclusive [activator, partial curve, poor fit].
For `Cc1nnc2sc(-c3ccc(NC(=O)CSc4ccc(Cl)cc4)cc3)nn12`, the “activity, positive = re-replication” value was inactive: -0.613%.
In the case of `NNC(=O)Cn1c(COc2ccc(Cl)cc2)nc2ccccc21`, the Potency is reported as inconclusive [activator, partial curve].
In the case of `O=C(Nc1cccn2ncnc12)c1ccccc1`, the Potency is reported as inconclusive [activator, partial curve, poor fit].
With `O=C1CS/C(=N/N=C\c2ccn[nH]2)N1` the “activity, positive = re-replication” value was inactive: 1.67%.
For `Cc1ccccc1-c1nn(-c2ccccc2)cc1C(=O)NCC(c1ccco1)N1CCCC1` (stereo not drawn), the Potency was inconclusive [activator, single point].
In the case of `c1ccc(-c2cnnc(N3CCOCC3)n2)cc1`, the Potency is reported as inconclusive [activator, single point].
With `C#CC1(O)CCC2C3CCc4cc(O)cc(C)c4C3CCC21C` (stereo not drawn) the Potency was inconclusive [activator, single point].
For `CN1C(=O)c2ccc(C(=O)Nc3ccccc3O)cc2C1=O`, the “activity, positive = re-replication” value was inactive: 5.54%.
In the case of `COc1ccccc1N1CCN(CC(O)COc2ccc3c(c2)OCO3)CC1` (stereo not drawn), the “activity, positive = re-replication” value is reported as inactive: -2.55%.
With `CC(=O)Nc1ccc(S(=O)(=O)NCC(=O)Nc2ccc3c(c2)OCO3)cc1` the “activity, positive = re-replication” value was inactive: 0.0335%.
In the case of `C=CCNC(=O)CN1CCN(C(c2ccccc2)c2ccccc2)CC1`, the Potency is reported as inconclusive [activator, partial curve, poor fit].
With `Cc1ccc(S(=O)(=O)N2CCC(=O)N(C(COCc3cccc(C)c3)C(C)C)CC2)cc1` (stereo not drawn) the “activity, positive = re-replication” value was inactive: 9.88%.
For `COC(=O)c1cc(N2C(=O)C3C4C=CC(CC4)C3C2=O)ccc1Cl` (stereo not drawn), the Potency was inconclusive [activator, full curve, poor fit].
For `O=S1(=O)N=C(N(CCO)/N=C/c2ccc(Br)cc2)c2ccccc21`, the “activity, positive = re-replication” value was inactive: 13.2%.
With `Cc1cccc(N2CCN(C(=O)C3CC(=O)N(c4ccc5c(c4)OCCO5)C3)CC2C)c1` (stereo not drawn) the Potency was inconclusive [activator, partial curve, poor fit].
For `NC(=O)C1=C[C@@H](c2ccc3c(c2)OCO3)C[C@@H](OCCCCO)O1`, the “activity, positive = re-replication” value was inactive: 4.84%.
In the case of `OCCNc1nc(Nc2ccccc2Oc2ccccc2)nc(N2CCCC2)n1`, the Potency is reported as inconclusive [activator, single point].
For `CCN(CC)CCNC(=O)C(Cl)=C1C(Cl)=C(Cl)C(Cl)=C1Cl`, the Potency was active: 10.3 µM.
With `COc1cccc(/C=C2\SC(=S)N(CCC(=O)NC3C=CS(=O)(=O)C3)C2=O)c1` (stereo not drawn) the Potency was inconclusive [activator, single point].
For `CC(=O)/C(=N/Nc1ccc(Br)cc1)Sc1cccc2cccnc12`, the Potency was inconclusive [activator, partial curve].
With `COC(=O)c1cnc(Oc2ccc(NC(=O)NC(=O)c3ccccc3Cl)cc2)cc1C(F)(F)F` the Potency was inconclusive [activator, partial curve, poor fit].
With `COC(=O)C(=C/C(C)=C/c1cccs1)C(=O)OC` the Potency was inconclusive [activator, partial curve, poor fit].
With `O=C(NNC(=S)Nc1cccc(C(F)(F)F)c1)c1cccc(Cl)c1` the Potency was inconclusive [activator, partial curve].
For `CC1C(=O)N2CCCc3cc(S(=O)(=O)N4CCN(c5ccc(F)cc5)CC4)cc1c32` (stereo not drawn), the Potency was inconclusive [activator, single point].
In the case of `CC(OC(=O)CCc1nc2ccccc2c(=O)[nH]1)C(=O)Nc1ncc(Cl)cc1Cl` (stereo not drawn), the “activity, positive = re-replication” value is reported as inactive: -7.24%.
In the case of `Cc1cc(C)cc(NS(=O)(=O)c2ccc(Oc3ncc(C(F)(F)F)cc3Cl)cc2)c1`, the Potency is reported as inconclusive [activator, full curve].
With `O=C(O)c1cn2c3c(ccc(Cl)c3c1=O)OCC2` the Potency was inconclusive [activator, single point].
For `CC1O[C@@H](OC2C(O)C(C)O[C@H](OC(=O)[C@]34CCC(C)(C)C[C@H]3C3=CCC5[C@@]6(C)CC(O)C(O[C@@H]7OC(CO)C(O)[C@@H](O)[C@@H]7O)[C@@](C)(C(=O)O)C6CC[C@@]5(C)[C@]3(CO)CC4)C2O[C@H]2OC(C)[C@@H](O[C@@H]3OCC(O[C@@H]4OC(CO)C(O)[C@H](O)C4O)[C@@H](O)[C@@H]3O)[C@H](O)C2O)C(O)C(O)C1O` (stereo partly drawn), the Potency was inconclusive [activator, full curve, poor fit].
In the case of `COc1ccc(C(c2nnnn2C2CCCCC2)N2CCN(c3ccccc3F)CC2)cc1` (stereo not drawn), the Potency is reported as inconclusive [activator, full curve].
With `O=C(N/N=C/c1ccc(O)cc1)c1cncc(Br)c1` the “activity, positive = re-replication” value was inactive: -1.33%.
With `Cc1ccc(NS(=O)(=O)c2ccc3c(c2)N(C)CCO3)cc1` the “activity, positive = re-replication” value was inactive: 3.98%.
With `Cc1cccc(NC(=O)c2oc(=O)c3ccccc3c2-c2ccccc2)c1C` the Potency was inconclusive [activator, full curve, poor fit].
In the case of `O=[N+]([O-])c1cc(CN2CCCC2)c2cccnc2c1O`, the “activity, positive = re-replication” value is reported as inactive: 22.1%.
With `COc1cc(/C=N/NC(=O)c2cc(C34CC5CC(CC(C5)C3)C4)[nH]n2)ccc1O` the Potency was active: 1.3 µM.
With `Cc1ccc(Nc2[nH]c(=O)c3ccccc3c2C(=O)c2ccccc2)cc1` the “activity, positive = re-replication” value was inactive: 2.66%.
With `COc1ccccc1N1CCN(CC(=O)Nc2nccs2)CC1` the “activity, positive = re-replication” value was inactive: -1.24%.
For `Cc1cc(N/N=C/c2ccccc2)nc(NCc2ccccc2)n1`, the Potency was inconclusive [activator, single point].
For `CCOc1ccc(Cl)cc1C1=CC(=O)C[C@H](c2ccc(OC)cc2)C1`, the Potency was inconclusive [activator, partial curve, poor fit].
In the case of `CCCc1nc2c(nnn2Cc2ccccc2F)c(=O)[nH]1`, the Potency is reported as inconclusive [activator, single point].
In the case of `CS/C(=N\S(=O)(=O)c1cccs1)Nc1ccc(Br)cc1F`, the Potency is reported as active: 23.1 µM.
With `COc1cc(C2C(C#N)=C(N)Oc3cc(C)oc(=O)c32)cc(OC)c1OC` (stereo not drawn) the “activity, positive = re-replication” value was inactive: 15.5%.
With `O=C1C(c2ccccc2)C(c2ccccc2)NC(c2ccccc2)C1c1ccccc1` (stereo not drawn) the Potency was inconclusive [activator, full curve, poor fit].
In the case of `COc1ccc(C(=O)N2CCCC(O)C2)cc1OC1CCN(C(C)C)CC1` (stereo not drawn), the “activity, positive = re-replication” value is reported as inactive: -2.64%.
For `O=C(CN1CCN(c2ccc(O)cc2)CC1)Nc1cc([N+](=O)[O-])ccc1Cl`, the “activity, positive = re-replication” value was inactive: -2.11%.
For `COc1ccc(S(=O)(=O)NC(CC(=O)N2CCc3ccccc32)c2ccco2)cc1` (stereo not drawn), the “activity, positive = re-replication” value was inactive: 9.3%.
